# Screen size: about 310,000 compounds; about 14,000 (4.5%) showed an effect of 50% or more. The effect is printed as a negative number. Some of the results follow.
# Target: human ether-à-go-go-related gene (hERG) potassium channel (human, UniProt Q12809)
# Assay: primary screen, population patch clamp on CHO cells stably expressing hERG
# 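Note: peak tail current of the secondary pulse compared with the same well before compound.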
# Chain of human ether-à-go-go-related gene (hERG) potassium channel (Q12809 whole entry, looked up): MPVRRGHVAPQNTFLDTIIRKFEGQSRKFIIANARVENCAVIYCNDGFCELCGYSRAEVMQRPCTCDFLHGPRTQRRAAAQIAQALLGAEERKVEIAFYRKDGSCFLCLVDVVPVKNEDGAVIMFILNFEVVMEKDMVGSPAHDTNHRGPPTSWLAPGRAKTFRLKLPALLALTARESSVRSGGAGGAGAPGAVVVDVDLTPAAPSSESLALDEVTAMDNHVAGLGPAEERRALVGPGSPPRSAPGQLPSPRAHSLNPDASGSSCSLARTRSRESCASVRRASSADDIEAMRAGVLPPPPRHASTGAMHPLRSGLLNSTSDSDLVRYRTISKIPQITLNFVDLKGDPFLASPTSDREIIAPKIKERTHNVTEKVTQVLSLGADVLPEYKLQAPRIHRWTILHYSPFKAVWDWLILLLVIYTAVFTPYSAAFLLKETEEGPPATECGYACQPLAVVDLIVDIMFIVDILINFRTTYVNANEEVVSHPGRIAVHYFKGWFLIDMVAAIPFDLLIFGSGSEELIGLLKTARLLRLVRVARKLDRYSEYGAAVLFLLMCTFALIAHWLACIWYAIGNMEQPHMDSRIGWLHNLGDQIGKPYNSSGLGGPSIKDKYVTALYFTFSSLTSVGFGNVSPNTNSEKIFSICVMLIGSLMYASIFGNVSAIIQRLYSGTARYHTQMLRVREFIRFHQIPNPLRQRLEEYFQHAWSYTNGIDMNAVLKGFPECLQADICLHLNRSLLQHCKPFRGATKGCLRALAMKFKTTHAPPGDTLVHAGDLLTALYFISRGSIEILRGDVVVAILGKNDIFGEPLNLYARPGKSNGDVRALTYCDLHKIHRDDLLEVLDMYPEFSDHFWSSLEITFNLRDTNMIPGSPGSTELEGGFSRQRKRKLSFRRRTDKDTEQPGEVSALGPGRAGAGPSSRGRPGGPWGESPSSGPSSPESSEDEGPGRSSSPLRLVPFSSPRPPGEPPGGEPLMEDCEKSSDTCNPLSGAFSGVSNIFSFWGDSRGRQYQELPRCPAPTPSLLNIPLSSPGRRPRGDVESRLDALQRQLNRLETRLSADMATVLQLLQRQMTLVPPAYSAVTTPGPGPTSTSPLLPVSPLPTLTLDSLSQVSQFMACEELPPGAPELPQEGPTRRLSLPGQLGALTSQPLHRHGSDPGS
row,Compound,"hERG current change (%, negative = inhibition) at 10uM"
1,COc1ccc(-c2cn(-c3ccccc3)c(=S)[nH]2)cc1OC,16.1%
2,CC12CCC(=O)N1C(C(=O)Nc1ccc(Cl)c(S(=O)(=O)N3CCCCC3)c1)CS2 (stereo not shown),-34.3%
3,CN(C)C(=O)Oc1ccc2c(c1)O/C(=C\c1cccc(Cl)c1)C2=O,17.9%
4,CSc1cccc(-n2ccc(=O)c(C)c2C)c1,18.2%
5,CS(=O)(=O)NNC(=O)Cn1nnc(-c2cc(C(F)(F)F)cc(C(F)(F)F)c2)n1,19.7%
6,CCN(Cc1nc2ccccc2c(=O)[nH]1)C(=O)CN1C(=O)NC2(CCCCC2C)C1=O (stereo not shown),-21.7%
7,CC(OC(=O)CCCOc1ccccc1)C(=O)NC(N)=O (stereo not shown),9%
8,CCOc1ccc(C(C)(C)C)cc1S(=O)(=O)Nc1ccncc1,17%
9,CC(C)C(C(=O)NCc1ccco1)N(Cc1ccco1)C(=O)CNS(=O)(=O)c1ccc(F)cc1 (stereo not shown),10.9%
10,Cn1c(=O)n(CCc2ccccc2)c(=O)c2c1nc1n2CCN1Cc1ccco1,-55.5%
11,COc1ccccc1NC(=O)C1CCC(CNc2c(N3CCCCC3)c(=O)c2=O)CC1 (stereo not shown),7.64%
12,Fc1ccc(NC(=S)N/N=C/c2ccc(F)c(F)c2)cc1,13.1%
13,CCCCN(C)CCNC(=O)CCn1nc(-c2ccc(Cl)cc2)ccc1=O,-67.1%
14,O=C(Nc1ccc(S(=O)(=O)Nc2ncccn2)cc1)C1COc2ccccc2O1 (stereo not shown),11.1%
15,C/C(=N\NC(=O)c1ccc(-n2cnnn2)cc1)c1ccc(Cl)cc1,-9.1%
16,CCCNC(=O)c1nnsc1Sc1ccc(Cl)cc1,5.23%
17,CC(=O)Nc1ccc(/C(C)=N/NC(=O)c2ccccc2Cl)cc1,6.29%
18,O=C(NCC(c1cccnc1)N1CCN(c2ccccc2F)CC1)C1CCCCC1 (stereo not shown),-17.5%
19,COc1ccccc1S(=O)(=O)c1c(C)cc(C)[nH]c1=O,11%
20,COc1ccc(-c2c(C#N)c(N)nc3c2c(=O)n(C)c(=O)n3C)cc1,-0.268%
21,Brc1cccc(-c2cnco2)c1,8.78%
22,Cc1cc(C)c(S(=O)(=O)Nc2ccc(Cl)cn2)c(C)c1,9.35%
23,COc1cccc2sc(Nc3nc(-c4ccccn4)cs3)nc12,21.4%
24,CCCCC1OC23CCCCC2C(C#N)(C#N)C1(C#N)C(=N)O3 (stereo not shown),3.76%
25,COc1ccc(C(=O)COC(=O)CNC(=O)c2ccc(Cl)cc2Cl)c(OC)c1,2.46%

# Reference: publication PMC4336329 (PLoS ONE, 2015)
